# The supplement of paper PMC4604168 (melanoma cell lines)
# The other results are listed elsewhere or left out. Most values come without repeats; read them as rough.
# Experiments:
# Experiment in all cases: cell count relative to DMSO control; melanoma cells; higher = more viable cells
# Conditions in all cases: library dose: standard library concentration; 72 h
# [1] = tested on: A101D
# [2] = tested on: A2058
# [3] = tested on: A375
# 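Also: cells treated in 1,536-well plates, then fixed and DAPI-stained, with nuclei counted from automated high-throughput microscope images.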
SMILES,cell count [1],cell count [2],cell count [3]
"CCCCCCCCc1ccc(CCC(N)(CO)CO)cc1 [fingolimod] + CC(=O)c1c(C)c2cnc(Nc3ccc(N4CCNCC4)cn3)nc2n(C2CCCC2)c1=O [palbociclib] (first compound 10 µM, partner dose 0.2 µM)",8.76%,53.4%,64.4%
"CCCCCCCCc1ccc(CCC(N)(CO)CO)cc1 [fingolimod] + C[C@@H]1CCN(C(=O)CC#N)C[C@@H]1N(C)c1ncnc2[nH]ccc12 [CP690550] (first compound 10 µM, partner dose 5 µM)",2.06%,2.49%,30.4%
"CCCCCCCCc1ccc(CCC(N)(CO)CO)cc1 [fingolimod] + CC(C)(C)c1cnc(CSc2cnc(NC(=O)C3CCNCC3)s2)o1 [SNS-032] (first compound 10 µM, partner dose 0.05 µM)",3.64%,2.89%,32.8%
"CCCCCCCCc1ccc(CCC(N)(CO)CO)cc1 [fingolimod] + Cc1nc(Nc2ncc(C(=O)Nc3c(C)cccc3Cl)s2)cc(N2CCN(CCO)CC2)n1 [dasatanib] (first compound 10 µM, partner dose 0.02 µM)",7.87%,6.25%,96.2%
"CCCCCCCCc1ccc(CCC(N)(CO)CO)cc1 [fingolimod] + O=C(Nc1cccc(Cl)c1)Nc1ncc(CCNc2ncnc3ccsc23)s1 [SNS314] (first compound 10 µM, partner dose 0.004 µM)",6.72%,4.58%,63.7%
"CCCCCCCCc1ccc(CCC(N)(CO)CO)cc1 [fingolimod] + OCc1c[nH]c2ccccc12 [Indole-3-carbinol] (first compound 10 µM, partner dose 4 µM)",4.3%,4.78%,31.8%
"CCCCCCCCc1ccc(CCC(N)(CO)CO)cc1 [fingolimod] + C=CCNC1=C2C[C@@H](C)C[C@H](OC)[C@H](O)[C@@H](C)/C=C(\C)[C@H](OC(N)=O)[C@@H](OC)/C=C\C=C(/C)C(=O)NC(=CC1=O)C2=O [Tanespimycin] (first compound 10 µM, partner dose 0.01 µM)",7.82%,8%,44.1%
"CCCCCCCCc1ccc(CCC(N)(CO)CO)cc1 [fingolimod] + Nc1cccc2c1CN(C1CCC(=O)NC1=O)C2=O [lenalidomide] (first compound 10 µM, partner dose 5 µM)",8.62%,7.07%,105%
"NC(=O)c1ccc(N(C(N)=O)c2c(F)cccc2F)nc1-c1ccc(F)cc1F + CN(C)S(=O)(=O)c1ccc2c(c1)/C(=C/c1cc3c([nH]1)CCCC3)C(=O)N2 [SU6656] (first compound 2 µM, partner dose 2 µM)",68.2%,76.2%,103%
"CN(NC(=O)CC(=O)NN(C)C(=S)c1ccccc1)C(=S)c1ccccc1 + c1cc(-c2cnn3cc(-c4ccc(OCCN5CCCCC5)cc4)cnc23)ccn1 [Dorsomorphin] (first compound 0.03 µM, partner dose 2 µM)",45.5%,7.69%,91.3%
"Cc1ccc(NC(=O)c2cccc(N(C)C)c2)cc1NC(=O)c1ccc(O)cc1 + CN(NC(=O)CC(=O)NN(C)C(=S)c1ccccc1)C(=S)c1ccccc1 [STA4783] (first compound 10 µM, partner dose 0.03 µM)",29.3%,10.6%,110%
"CCCCCCCCc1ccc(CCC(N)(CO)CO)cc1 [fingolimod] + Cn1c(Nc2ccc(C(F)(F)F)cc2)nc2cc(Oc3ccnc(-c4ncc(C(F)(F)F)[nH]4)c3)ccc21 [CHIR265] (first compound 10 µM, partner dose 0.4 µM)",3.5%,3.99%,35.8%
"NC(=O)c1ccc(N(C(N)=O)c2c(F)cccc2F)nc1-c1ccc(F)cc1F + CC(=O)c1c(C)c2cnc(Nc3ccc(N4CCNCC4)cn3)nc2n(C2CCCC2)c1=O [palbociclib] (first compound 2 µM, partner dose 0.2 µM)",75.7%,121%,82%
"CCCCCCCCc1ccc(CCC(N)(CO)CO)cc1 [fingolimod] + COc1ccc(Cl)c(Nc2nc3ccccc3nc2NS(=O)(=O)c2cccc(NC(=O)C(C)(C)N)c2)c1 [XL147] (first compound 10 µM, partner dose 4 µM)",13.8%,8.81%,74.4%
"CCCCCCCCc1ccc(CCC(N)(CO)CO)cc1 [fingolimod] + Cn1c(=O)n(-c2ccc(C(C)(C)C#N)cc2)c2c3cc(-c4cnc5ccccc5c4)ccc3ncc21 [NVP-BEZ235] (first compound 10 µM, partner dose 0.02 µM)",4.58%,7.31%,60.2%
"NC(=O)c1ccc(N(C(N)=O)c2c(F)cccc2F)nc1-c1ccc(F)cc1F + CC1(C)NC(=O)N(c2ccc([N+](=O)[O-])c(C(F)(F)F)c2)C1=O [nilutamide] (first compound 2 µM, partner dose 5 µM)",99.9%,105%,112%
"CCCCCCCCc1ccc(CCC(N)(CO)CO)cc1 [fingolimod] + C=CCn1c(=O)c2cnc(Nc3ccc(N4CCN(C)CC4)cc3)nc2n1-c1cccc(C(C)(C)O)n1 [MK1775] (first compound 10 µM, partner dose 0.1 µM)",4%,2.63%,41.5%
"NC(=O)c1ccc(N(C(N)=O)c2c(F)cccc2F)nc1-c1ccc(F)cc1F + COc1cc2c(Oc3ccc4[nH]c(C)cc4c3F)ncnc2cc1OCCCN1CCCC1 [cediranib] (first compound 2 µM, partner dose 2 µM)",99.3%,93.3%,132%
"CCCCCCCCc1ccc(CCC(N)(CO)CO)cc1 [fingolimod] + Nc1ncn([C@H]2C[C@H](O)[C@@H](CO)O2)c(=O)n1 [decitabine] (first compound 10 µM, partner dose 0.5 µM)",4.92%,7.8%,61.2%
